This note sets out measurements from the RNAGym collection of RNA variant scans (doi:10.7554/elife.90254).

The source gives no read counts; variants with many changes may rest on few reads.

To fix the notation:
B1: LINE1-full (parent)
chain: UACGUAGGUGGUUUUCCCCUGAUAGUGCUAAGGGGGCCUGGAAGUUUGGACUGGGCAGAGCUCAACACAGCGUGGCAAAGUGGCUGUGGCUAGACUGCCUCUCUGGAUUCCUCGUCACUCAGCAGGGCAUCUCUGAGAGAAAUGCC

Variants of B1 are the subject of this data set. Nature of the data set: self-cleavage, relative activity (ratio to wild type); higher = more cleavage; in vitro, sequencing; the parent is a self-cleaving ribozyme.
For U12C U14C A69U U100C U130C, the self-cleavage is 0.37.
Take U12C U109A A129G: the self-cleavage is 1.58.
In the case of U12C U26A A65G, the self-cleavage is 0.07.
With U12G A64C A129U U143C the figure was 0.52.
With U12G G80A G105U U119C U134C the figure was 2.77; with U12C U47C A64G, 0.29.
For U12G C19U A121U, the self-cleavage was 0.
As to U12C U14C A42U, the self-cleavage was 0.88.
In the case of U13A C19U G32C U47C G93A C95U A136G A142G, the self-cleavage was 0.06.
As for U12C U46C A140G, the self-cleavage came to 0.35.
Take U13A A64G A65G: the self-cleavage stood at 0.
U13A U23C A42G: the self-cleavage was 0.61.
With U12G U26C U112C U119A A142G, the self-cleavage came to 1.15.
Regarding U12C U108C G114A, the self-cleavage came to 2.3.
Consider U12C U13C U73A, for which the self-cleavage turned out to be 1.23.
Take U12C U15A U73C A121U A141G: the self-cleavage worked out at 0.
Turning to U13A A22U A31G, the self-cleavage was found to be 0.56.
Take U12C U85A A117C: the self-cleavage is 0.07.
As for U12G U23C G54A U81A U91A, the figure is 0.43; as for U12C U39A U81A G89A U112A A141G, 0.04; as for U12C U62A A141G, 0.18.
Consider U12G C128U A138G C145U, for which the self-cleavage is 0.94.
With U12C U39C A43G G60A the figure was 0.09.
Turning to U12G A67U U81A, the self-cleavage is 0.11.
Turning to U12G U39A U130C, the self-cleavage worked out at 1.36.
As for U12G A30G U73A, the self-cleavage amounted to 1.84.
With U12G U15C U26A U62G, the self-cleavage came out at 0.55.
On to U12C U20C U73A U87A, for which the self-cleavage was determined as 0.21.
Consider U12C U20C U52C A78G U85A, for which the self-cleavage amounted to 0.24.
U13A U100C U143C: the self-cleavage worked out at 1.22.
On to U13C A24U G36A A78G U100G, for which the self-cleavage was 0.33.
On to U12G A124G A129U A138G, for which the self-cleavage amounted to 1.71.
For U12G C17A G33U A43G A141G, the self-cleavage turned out to be 0.95.
Regarding U12C U96C A142G, the self-cleavage came to 0.
Consider U12C U62A U73C, for which the self-cleavage came to 0.
Take U12G U39C A92U U132C: the self-cleavage stood at 0.82.
Take U12G G21U U39A A57G U81A U85A A92U A107G: the self-cleavage came out at 0.
As for U12G U52C A129G, the figure is 1.04; as for U13A A22C G127C, 1.22.
As for U12G G34U U47C, the figure is 1.04; as for U13C A22U A42G U81C U112A C113U A138G, 1.67; as for U13A A92U U130C, 0.29.
As to U12C U47C U96C A129G, the self-cleavage was found to be 0.77.
As for U13C A24G A64U U115C A117G U132C, the figure is 0.
For U13A U47C A94U A107G, the self-cleavage came out at 0.28.
For U12G U47A U91C C128A, the self-cleavage came out at 0.55.
With U12G U13C A43G U47A A79G the figure was 2.
In the case of U12C U26A U87G, the self-cleavage was determined as 0.58.
Regarding U13A A141G U143C, the self-cleavage amounted to 1.84.
U12C U62C A78G: the self-cleavage was found to be 0.2.
Regarding U13A A57U A64G, the self-cleavage worked out at 0.1.
As for U13A A77U U87G, the self-cleavage came to 0.08.
In the case of U12G U13C U15C A94G, the self-cleavage stood at 0.51.
Regarding U13A A50G A64G A79G, the self-cleavage was 0.
Take U12C U73G U96A C118G C128U: the self-cleavage turned out to be 0.04.
In the case of U12C U14C G48U U96C U108C, the self-cleavage stood at 0.42.
Consider U12C U29C A31G A124G, for which the self-cleavage came out at 1.15.
As to U13A U14C A67U U85C U132C U134A, the self-cleavage was determined as 0.
As to U13A A94G A121G A138G, the self-cleavage was 0.
As to U12C U14C U52C A64U U87A, the self-cleavage amounted to 0.21.
For U12G U26C A42G, the self-cleavage turned out to be 0.8.
As for U12G C103U U112C, the figure is 0.94; as for U13A A43G A94G A117C U134C, 0.46.
For the variant U12C U85A C98U, the self-cleavage came out at 0.04.
With U13A A24U A30G U62C U73A C99U the figure was 0.12; with U13A G82A C99U U108C, 0.71.
For the variant U13A A43G A77U U87C A141G, the self-cleavage is 0.
With U12G C38A A43U U132A, the self-cleavage was found to be 2.63.
Take U13A U26A G40A A92G C128U U143A: the self-cleavage came out at 0.06.
For the variant U12G A67G G89A U104G, the self-cleavage is 0.33.
Turning to U13C A30G A79G U96C U132A, the self-cleavage worked out at 0.
With U12C U20C G34A G49A the figure was 1.16; with U12G G34A G126A, 0.77; with U13A U108C A136G, 2.82.
As for U12C U87A C133U A136G, the self-cleavage turned out to be 0.09.
Regarding U13C A22G U108A, the self-cleavage worked out at 1.14.
U12G U39A U46C A77G: the self-cleavage is 1.37.
With U13A U15C A30G G33U A78G U119C, the self-cleavage was determined as 0.97.
For U12C U62C U73C A107U U108C, the self-cleavage worked out at 0.26.
As for U12G C18U U91C, the self-cleavage was determined as 0.
With U12C U14C U85A the figure was 0.22; with U13A A69U C120U, 0.06.
U13A C63U U85A U132C A138U: the self-cleavage was determined as 0.03.
Regarding U13A U46C U102C, the self-cleavage was 1.87.
With U12G U29A G72C A77U U85C A140G, the self-cleavage worked out at 0.18.
On to U12C U26A C66A U85C, for which the self-cleavage was found to be 0.08.
U12G A65G C71A U119A U132C A141G: the self-cleavage came out at 0.
As for U12G U13C U81C U109A, the figure is 0.71.
As for U13C A22G G74A U119C, the self-cleavage worked out at 0.79.
Consider U12G G27A U96C, for which the self-cleavage turned out to be 0.17.
Take U12C U91C A107U: the self-cleavage was 1.15.
Take U12G U47C C98U: the self-cleavage was 0.9.
As for U13A A57U A79G A138G, the figure is 0.04; as for U12C U87C G105A, 0.2; as for U12C U26C U96G, 0.
Consider U13A U81C A117U, for which the self-cleavage worked out at 0.99.
With U12C U45C U134A A136G, the self-cleavage came out at 2.49.
Take U12C U104A U108C U134A: the self-cleavage amounted to 1.81.
With U12C U20G A42G A59U G88A the figure was 0.14.
In the case of U12G G72A A78G C110A A117G, the self-cleavage worked out at 0.96.
For the variant U13A A65G C71U C146U, the self-cleavage was determined as 0.06.
With U12G U102C A142G C146U, the self-cleavage amounted to 1.84.
In the case of U12G U45C U52A A64G U100C, the self-cleavage came out at 0.
For U13C A24G U26C A79G U85A C123A, the self-cleavage worked out at 0.29.
With U12C U26C U109C U112A U119A, the self-cleavage is 1.02.
For the variant U13A U39A U73A A138G A140G, the self-cleavage was 1.21.
Take U12C U14C U143A: the self-cleavage worked out at 0.68.
With U12C U13A A59G A78U A136G, the self-cleavage amounted to 0.1.
For U12C U47C A69G G125A A141U, the self-cleavage came to 0.47.
For the variant U12G U26A U47A A138G, the self-cleavage worked out at 1.21.
For the variant U12C U108A C111U A121U, the self-cleavage stood at 2.14.
As for U12C U13C U14C C103U U112A A141G, the figure is 0.84; as for U12C U102A U104A, 1.82; as for U13C A24G U87A, 0.07.
Consider U13A U96C A121G U132C, for which the self-cleavage came out at 0.28.
Take U12C G93A U109C: the self-cleavage came out at 0.11.
For the variant U12G U20A U45A U132C A138G A142G, the self-cleavage stood at 0.88.
On to U13A G75U U96A, for which the self-cleavage amounted to 0.03.
Take U12G A77G U85C: the self-cleavage worked out at 0.5.
Consider U12C U15A A30U A50G A92G, for which the self-cleavage stood at 0.
As for U13C A22U G126A U130A, the self-cleavage turned out to be 1.51.
In the case of U13A A117C A124G, the self-cleavage worked out at 0.97.
On to U12C U14C U29C A141G, for which the self-cleavage was 0.38.
As to U12C U46C U115C, the self-cleavage amounted to 2.04.
For U13A U15C A65G U104C A136U, the self-cleavage is 0.
In the case of U12G U85A A129U A142C, the self-cleavage was 0.2.
As to U13A U29C U39C U45C, the self-cleavage was 2.87.
Turning to U12G U100C A129U, the self-cleavage is 1.04.
As for U12C U73G A136G, the self-cleavage was 1.41.
Consider U12C U20C A57G G83A, for which the self-cleavage amounted to 1.48.
For the variant U13C A24U U52A, the self-cleavage amounted to 0.97.
Regarding U12G A64G A67G U108A, the self-cleavage was 0.
As to U12C U85C U91C, the self-cleavage worked out at 0.31.
As for U13A A77G C118U U143C, the figure is 1.75; as for U12C U20A A69G, 0.36; as for U12C U20C G54A A78U A129G, 1.41.
In the case of U12C U15C G125U, the self-cleavage is 1.37.
As for U13A U62C A78G A136G, the figure is 0.04.
As for U12G U47A A59U A129G, the figure is 1.18.
As for U12C U81A A136G, the self-cleavage is 2.35.
As to U12C U29C U87C U109C U143C, the self-cleavage was 0.84.
Turning to U12C U13C A22U, the self-cleavage amounted to 0.51.
With U12G U13C U47C G53A A140G, the self-cleavage stood at 2.83.
As for U12G A57U G75U U87A A107G, the figure is 0.08.
Consider U13A U100C U108A A129G, for which the self-cleavage came out at 1.84.
Consider U12C U46A A77G A138U, for which the self-cleavage amounted to 1.48.
For the variant U12C U20A A65G, the self-cleavage was 0.06.
With U13A A22G U62C A67U A79G A141G the figure was 0; with U12G A42G U85A C133A A142G, 0.12.
With U12G A65G A67G G72A A94G the figure was 0; with U12C U130A A141G, 1.23.
Consider U12C U96A G106U A129G, for which the self-cleavage amounted to 0.1.
In the case of U12C U13C U104C, the self-cleavage is 1.11.
For U12C U26A A31U A138G, the self-cleavage amounted to 0.99.
Take U12C U29C U45C U130C: the self-cleavage came to 1.31.
Regarding U12G A57G U115C, the self-cleavage turned out to be 2.3.
Take U12C U45C U73A A138G: the self-cleavage stood at 2.
Take U13C A22G C37A U87A: the self-cleavage is 0.17.
As to U12C U81C U108C, the self-cleavage was 2.45.
With U12C U96C A141G, the self-cleavage is 0.
As for U13A A92U U115C, the figure is 0.7; as for U13C A22G A129G, 0; as for U12C U23C G40U A67U A117G A124U, 0.2.
With U12C U20C G88A, the self-cleavage was 0.16.
Turning to U12C U102A A124U, the self-cleavage amounted to 2.1.
With U12G A22G A65U C76U A79G G114A, the self-cleavage amounted to 0.11.
As for U13A A31G A43U A141G, the figure is 0.97.
